{"source": "PubChem BioAssay AID230", "about": "(DTP/NCI, 2004)", "test_system": "C3H/He mice, Gardner lymphosarcoma 6C3HED ip, survival T/C", "test": "NCI In Vivo Anticancer Drug Screen. Data for tumor model Lymphosarcoma Gardner 6C3HED (intraperitoneal) in C3H/He mice", "settings": "endpoint: survival time, mean or median, schedule: Q01DX010 (ip), higher = longer survival", "description": "The antitumor activity of compounds was measured in mice bearing transplantable tumors. Survival or tumor size were measured and the results are expressed as the measurement made in the treated group (T) divided by the measurement made in the vehicle treated control group (C). The tumor model used in this assay is Lymphosarcoma Gardner 6C3HED (intraperitoneal) in C3H/He mice", "note": "Inconclusive results and toxic doses are left out. Certain results were filed several times, with different values. This is not the full list of results. There may be further records. Values that stand side by side are repeated measurements across runs, samples, wells, individuals or studies."}
{"smiles": "NC(Cc1ccc(N(CCCl)CCCl)cc1)C(=O)O", "note": "(centres undefined)", "values": [{"measurement": "T/C", "setting": "dose: 2.5 mg/kg/injection, vehicle: saline", "result": "107 % of control and 150 % of control"}]}
{"smiles": "Cc1cc2nc3c(=O)[nH]c(=O)nc-3n(CC(O)C(O)C(O)C(O)CO)c2cc1C", "note": "(centres undefined)", "values": [{"measurement": "T/C", "setting": "dose: 25.0 mg/kg/injection, vehicle: saline", "result": "96 % of control and 302 % of control"}]}
{"smiles": "Nc1nc(N)c2nc(CNc3ccc(C(=O)NC(CCC(=O)O)C(=O)O)cc3)cnc2n1", "note": "(centres undefined)", "values": [{"measurement": "T/C", "setting": "dose: 0.2 mg/kg/injection, vehicle: other", "result": "120 % of control and 150 % of control"}]}
{"smiles": "CS(=O)(=O)OCCC(=O)N1CCN(C(=O)CCOS(C)(=O)=O)CC1", "values": [{"measurement": "T/C", "setting": "dose: 100.0 mg/kg/injection, vehicle: saline", "result": "105 % of control and 165 % of control"}]}
